Data as given in ChEMBL document CHEMBL4888484, “Replenishing the malaria drug discovery pipeline: Screening and hit evaluation of the MMV Hit Generation Library 1 (HGL1) against asexual blood stage Plasmodium falciparum ,using a nano luciferase reporter read-out” (2022).
The whole screen tested about 150,000 compounds, of which about 540 (0.36%) showed an effect of 50% or more. The list shows a part of the results.

System: Plasmodium falciparum
Assay: Primary screen in NF54 nanoGlo assay, in single point, at 2uM, 72h; a lower Z score goes with more inhibition
Assay type: functional, Erythrocyte
Settings: timepoint 72 hour

Structure (SMILES) | % Inhibition [%] | Z score
C[C@H](NC(=O)Nc1cccc(F)c1F)C(=O)OC1CCCC1 | -13 | 2.49
CC1CN(CCC(=O)NC2CC2)C(C)CO1 (centres undefined) | -42 | 4.94
CCCc1cc(N[C@@H](C)C(=O)N(C)C)nc(C)n1 | 2 | -0.39
COc1ccc2c(N3CCN(C(=O)CCc4ccc(-c5ccc(C)cc5)o4)CC3)nsc2c1 | 32 | -3.62
Cc1cnc(CN2CC3(CCC2=O)CCN(C(=O)c2ccc(N)nc2)CC3)cn1 | -8 | 0.98
COCc1cc(N2CCC(c3[nH]ncc3Cc3ccccc3)CC2)ncn1 | -13 | 1.29
CCCN1C[C@@H]2CC[C@H]1CN(S(=O)(=O)c1ccc(C)c(F)c1)C2 | -11 | 1.41
Cc1nccn1CCn1ncn2cccc2c1=O | -8 | 1.08
CCOC(=O)COc1c(C)cc(N)cc1C | -8 | 1.06
Cc1ccccc1Cc1sc(NC(=O)CCc2nnc[nH]2)nc1C | -10 | 1.13
CC(C)(C)OC(=O)N1CC(O)C(C#N)C1 (centres undefined) | 15 | -1.8
CCn1c(CN2CCc3[nH]nc(CC4CCCC4)c3C2)nc2ccccc21 | 7 | -0.63
CC1CC(C)CN(CCCN2C(=O)c3nc4ccccc4n3CC2(C)C(=O)NC2CCCCCC2)C1 (centres undefined) | -9 | 0.84
CCCNC(=O)Cn1c(-c2ccco2)nn(-c2ccc(Cl)cc2)c1=O | -10 | 1.47
O=S(=O)(c1cccnc1)N1C2CCC1CC(Oc1cccnc1)C2 (centres undefined) | -14 | 1.62
CCc1cnc(CCNC(=O)N(C)Cc2cc3ccccc3o2)s1 | -9 | 0.93
O=C(NCc1ccncc1)N1CCC([C@H](O)C(F)(F)F)CC1 | -6 | 0.72
CC(C)c1cc(NCCCc2ncc[nH]2)ncn1 | -3 | 0.54
Cc1nnc(N2CCN(c3ncccn3)CC2)c(C#N)c1C | -19 | 2.11
CC(C)Oc1cc(Br)cc(NC(=O)[C@H]2C[C@H](O)CN2)c1 | -12 | 1.37
Cc1ccc(C)c(CNC[C@]2(O)CCCN3CCCC[C@@H]32)c1 | 26 | -3.34

Structure (SMILES) | % Inhibition [%] | Z score
C=CC[C@]1(CO)CCCN(C(=O)c2csc(NC)n2)C1 | 3 | -0.48
O=C(Nc1ccccc1O)C1CCN(c2nc(N3CCCC3)nc(N3CCCC3)n2)CC1 | -6 | 1.08
COCCN(CC(N)=O)S(=O)(=O)c1ccc(C)cc1C | -7 | 1.3
CN(CC1CCCCC1O)C(=O)NC1CCc2ccccc21 (centres undefined) | 7 | -0.84
NC(=O)CC1CCN(S(=O)(=O)c2cccc3ccncc23)CC1 | 1 | -0.19
Cc1cc(CNC(=O)Nc2ccnc(C(=O)OC(C)(C)C)c2)on1 | -11 | 1.64
O=C(Nc1ccccc1)N(CCOCCOCCN(Cc1ccccc1)C(=O)Nc1ccccc1)Cc1ccccc1 | -1 | 0.19
COC(=O)c1ccc(CN2CCC(N3C[C@@H](C)O[C@@H](C)C3)CCC2=O)cc1 (some centres undefined) | -11 | 1.26
COc1nccc(-c2ccc(S(=O)(=O)N3CCCCC3)cc2)c1C#N | -12 | 2.23
CCCOC1(CNC(=O)c2cn[nH]c2C)CCCCC1 | -1 | 0.2
CC(C)c1cc(NC(=O)NCCCN2CCNC(=O)C2)n(C)n1 | 1 | -0.11
C[C@]1(c2nc(C3CCCCCC3)no2)CCNC1 | -1 | 0.15
Cc1cc(C)cc(OCC(=O)NCc2ccc(-c3nn4c(C)nnc4s3)cc2)c1 | -8 | 1.16
Cc1cnccc1C(=O)NC[C@H]1CCN(Cc2nc3ccccc3[nH]2)C1 | -4 | 0.66
O=C(C[C@H](c1ccc(Cl)c(Cl)c1)c1c[nH]c2ccccc12)NC1CCN(Cc2ccccc2)CC1 | 1 | -0.19
CCc1cc(N[C@H]2CC(C)(C)Cc3nc(N4CCC(O)CC4)ncc32)nc(C)n1 | -10 | 1.9
Cc1ccc(N(C)Cc2csc(C(C)C)n2)nn1 | 1 | -0.1
Cc1cnc(C(=O)N2CCOc3ccc(C(=O)NCc4ccccc4)cc3C2)cn1 | -10 | 1.82
CCCN(CC(=O)NCCc1ccc(S(N)(=O)=O)cc1)CC(=O)N(C)C | 2 | -0.27
O=S(=O)(Nc1ccccc1)c1ccc(-c2cnc(C3CC3)o2)cc1 | -5 | 0.92
Cc1ccc(C)c(Cn2cccc2CNC(=O)NC2CCCC2)c1 | 4 | -0.65
